Measurements as given in PubChem BioAssay AID1768 (National Center for Advancing Translational Sciences (NCATS), 2009).
The campaign covered roughly 270,000 compounds. About 620 (0.23%) were called active. This list was built around the results that the source calls inconclusive (neither active nor inactive); the mix of calls is not that of the screen. Calls come from the whole dose curve; as a rule, active = well fitted inhibition curve with a large enough effect in the polarisation, with a control signal flat (not every such curve was filed as active); inconclusive = small, poorly fitted or top-dose-only effect, or effect the other way, or a change in a side signal; inactive = no such curve, though single readings can be large or run the other way; the % refers to the polarisation. A potency beside an inconclusive call is a rough fit, not a confirmed value. “Side channel” marks fits to a control or component signal instead of the main read-out.

What follows are compounds tested against Menin (Homo sapiens) (UniProt O00255) (assay: qHTS Assay for Inhibitors Targeting the Menin-MLL Interaction in MLL Related Leukemias: Competition With Texas Red Labeled MLL-derived Mutant Peptide). Details: fluorescence polarization; FP activity change, negative = inhibition: at 61.6 µM (top of the series).
Sequence of UniProt O00255 (O00255 whole entry, looked up): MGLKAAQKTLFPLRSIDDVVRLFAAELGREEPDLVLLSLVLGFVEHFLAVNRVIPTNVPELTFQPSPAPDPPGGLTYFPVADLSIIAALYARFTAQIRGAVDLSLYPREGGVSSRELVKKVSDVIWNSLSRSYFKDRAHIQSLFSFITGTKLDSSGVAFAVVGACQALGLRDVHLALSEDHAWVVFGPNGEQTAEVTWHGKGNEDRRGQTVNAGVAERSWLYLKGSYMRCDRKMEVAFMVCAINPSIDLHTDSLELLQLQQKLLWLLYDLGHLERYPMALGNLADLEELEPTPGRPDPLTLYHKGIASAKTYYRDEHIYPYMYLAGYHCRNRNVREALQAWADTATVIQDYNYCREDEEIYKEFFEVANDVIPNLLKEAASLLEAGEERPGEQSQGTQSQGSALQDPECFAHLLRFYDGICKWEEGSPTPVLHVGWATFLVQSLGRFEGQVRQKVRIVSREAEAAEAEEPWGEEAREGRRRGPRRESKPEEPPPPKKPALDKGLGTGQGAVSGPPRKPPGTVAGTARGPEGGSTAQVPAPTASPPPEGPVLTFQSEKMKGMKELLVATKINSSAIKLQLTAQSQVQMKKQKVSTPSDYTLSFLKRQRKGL
Potency is the fitted concentration of half-maximal effect; tags give direction and shape of the fitted curve or compound fluorescence and quenching.
Throughout, for FP activity change, negative = inhibition: % of control where 0% means no effect.

Potency, inconclusive:
O=C(O)CN1C(=O)/C(=C2\C(=O)N(Cc3ccccc3Cl)c3ccccc32)SC1=S 25.1 µM [quencher, side channel, partial curve]
Cc1ccn(C(=O)c2cc3cc(Cl)ccc3oc2=O)n1 31.6 µM [inhibitor, single point]
COc1cccc(C(=O)NC(C)c2cccc3ccccc23)c1OC (centres undefined) 39.8 µM [fluorescent, side channel, single point]
CC(C)(C)c1ccccc1NC(=O)Cn1cnc2cc([N+](=O)[O-])ccc2c1=O 22.4 µM [quencher, side channel, partial curve]
Cc1nn(-c2cccc(Cl)c2)c2c1C(c1ccncc1)C(C#N)=C(N)O2 (centres undefined) 20 µM [quencher, side channel, partial curve]
COc1cc2cc(C(=O)N3CCC(Cc4ccccc4)CC3)[nH]c2cc1OC 11.2 µM [fluorescent, side channel, partial curve]
N#Cc1ccncc1Sc1ccc(Cl)cc1 39.8 µM [quencher, side channel, single point]
COc1ccc(C(=O)Oc2cc(/C=N/NS(=O)(=O)c3ccccc3)ccc2OC)cc1 4.47 µM [quencher, side channel, full curve]
CC(C)(C)c1ccc(C(=O)N2CCN(CCNC(=O)C(=O)NCc3ccc(Cl)cc3)CC2)cc1 2.82 µM [fluorescent, side channel, full curve, poor fit]
COc1c(C=O)cc2c3c1CCCN3CCC2 8.91 µM [inhibitor, partial curve]
O=C(Nc1ccc(N2CCCC2)c(Cl)c1)c1ccccc1[N+](=O)[O-] 20 µM [quencher, side channel, partial curve]
CCOc1ccc2c(=O)c(Oc3ccccc3OCC)coc2c1 15.8 µM [fluorescent, side channel, partial curve]
C=CCOc1ccc(/C=C2\C(=N)N3N=C(S(=O)(=O)CC)SC3=NC2=O)cc1OC 8.91 µM [quencher, side channel, full curve, poor fit]
COc1ccccc1N1C(=O)C(Cl)=C(Nc2ccccc2O)C1=O 25.1 µM [quencher, side channel, partial curve]
CC(C)CCN1C(=O)c2ccc(C(=O)Nc3ccc(O)cc3C(=O)O)cc2C1=O 22.4 µM [quencher, side channel, partial curve]
Cc1ccc(C2(CCNC(C)c3cccs3)CCOC(C(C)C)C2)cc1 (centres undefined) 12.6 µM [fluorescent, side channel, partial curve]
COC(=O)c1c(NC(=O)CN2CCN(C(=O)c3ccco3)CC2)c2c(C)cccc2n1C 31.6 µM [inhibitor, partial curve]
CCc1ccc(NC(=O)C(C)OC(=O)c2cc(=O)[nH]c3ccc(S(=O)(=O)Nc4ccc(F)cc4)cc23)cc1 (centres undefined) 39.8 µM [fluorescent, side channel, single point]
O=c1[nH]c(-c2ccccc2Cl)nc2c1sc(=S)n2-c1ccccc1 20 µM [quencher, side channel, partial curve]
CCN(CC)S(=O)(=O)c1cccc(N=Nc2sc(N)nc2C)c1 15.8 µM [quencher, side channel, single point]
O=C(Nc1ccccc1-c1ccccc1)C12CC3CC(CC(C3)C1)C2 10 µM [inhibitor, full curve, poor fit]
CCOC(=O)c1sc(NC(=O)c2cccc(S(=O)(=O)N3CCN(C)CC3)c2)cc1C 2.82 µM [quencher, side channel, full curve]
CCCCn1c(N)c(Sc2ccccc2[N+](=O)[O-])c(=O)[nH]c1=O 44.7 µM [inhibitor, partial curve, poor fit]
O=C(COC(=O)Cc1ccsc1)Nc1ccc(Cl)c(S(=O)(=O)N2CCOCC2)c1 25.1 µM [quencher, side channel, single point]
c1ccc2sc(NN=C3CCCCCC3)nc2c1 39.8 µM [quencher, side channel, single point]
Cc1ccc(-c2csc3ncn(CC#N)c(=O)c23)cc1 15.8 µM [quencher, side channel, partial curve]
CC(=O)CSc1nsc(SCC(C)=O)c1C#N 5.62 µM [quencher, side channel, partial curve]
Cc1cccc(-c2nc(CN3CCCC(C(=O)NC4CCC(C)CC4)C3)c(C)o2)c1 (centres undefined) 5.01 µM [fluorescent, side channel, full curve]
N#Cc1nc(-c2ccco2)oc1N1CCC(C(N)=O)CC1 39.8 µM [inhibitor, partial curve]
CC(C)CC[n+]1ccn(C2=C([O-])c3ccccc3C(=O)/C2=N\S(=O)(=O)c2ccccc2)c1 25.1 µM [inhibitor, single point]
Oc1ccc(/C=N/Nc2ccc(C(F)(F)F)cn2)c(O)c1 14.1 µM [quencher, side channel, partial curve]
CCOC(=O)N1CCN(c2c(-c3ccccc3)c3cc(Cl)ccc3[nH]c2=O)CC1 1.78 µM [fluorescent, side channel, full curve, poor fit]
CNC(=O)c1[nH]cnc1C(=O)Nc1cccc(OC)c1 25.1 µM [inhibitor, partial curve]
O=[N+]([O-])c1nn(-c2ccc3c(c2)OCCO3)n(O)c1=NCc1ccccc1Cl 14.1 µM [quencher, side channel, partial curve]
CCc1nc(N2CCN(C(=O)CCl)CC2)c2c3c(sc2n1)CC(C)CC3 (centres undefined) 15.8 µM [fluorescent, side channel, partial curve]
CCC1(O)CC2CN(CCc3c([nH]c4ccccc34)[C@@](C(=O)OC)(c3cc4c(cc3OC)N(C=O)C3[C@]45CCN4CC=C[C@@](CC)([C@@H](OC(C)=O)[C@]3(O)C(=O)OC)[C@H]45)C2)C1 (some centres undefined) 10 µM [fluorescent, side channel, partial curve]
COc1ccc(CNC(=O)Cn2nnc(-c3ccc(NC(=O)C4CCCCC4)cc3)n2)cc1 15.8 µM [inhibitor, partial curve]
CSc1cccc(NC(=O)Cc2ccccc2[N+](=O)[O-])c1 14.1 µM [quencher, side channel, partial curve]
CCn1c(=S)sc2c(=O)n(CC(=O)Nc3ccccc3)c(C)nc21 14.1 µM [quencher, side channel, partial curve]
CN(/N=C/c1cc(Br)cc(Br)c1O)c1cccc(C(F)(F)F)n1 17.8 µM [quencher, side channel, partial curve]
CC(C)CCNC(=O)c1nn(Cc2ccccc2)c(=O)c2ccccc12 14.1 µM [inhibitor, partial curve]
O=S(=O)(c1cccc(F)c1)N1CCN(C(=S)NCc2ccccc2)CC1 28.2 µM [quencher, side channel, partial curve]
Cc1cc(C)cc(Nc2nc3ccccc3c(=O)[nH]2)c1 17.8 µM [quencher, side channel, partial curve]
Cc1ccc(S(=O)(=O)N(CC(=O)N2CCCCCC2)c2ccccc2)cc1 11.2 µM [fluorescent, side channel, partial curve]
Cc1ccc(C)c(CSC2=NCCN2C(=O)Cc2ccc([N+](=O)[O-])cc2)c1 12.6 µM [quencher, side channel, partial curve]
Oc1ccccc1C1=NN(c2ccccc2)C(c2ccccc2)C1 (centres undefined) 6.31 µM [quencher, side channel, partial curve]
COCCNCCCOc1ccc(C(C)(C)c2ccccc2)cc1 39.8 µM [inhibitor, single point]
COC(=O)CCCC1=CC2=C(c3ccccc3)C(=O)C(C)(OC(=O)C3CCCC3)C(=O)C2=CN1CCCOC(C)C (centres undefined) 7.08 µM [inhibitor, single point]
O=C(NNC(=O)C12CC3CC(CC(C3)C1)C2)c1ccncc1 25.1 µM [inhibitor, single point]
COC(=O)c1ccc(NC(=O)c2cn(-c3ccccc3)nc2-c2ccncc2)cc1 15.8 µM [quencher, side channel, partial curve]
COc1ccccc1OCC(=O)/C=C1/N(C)c2ccccc2C1(C)C 7.94 µM [fluorescent, side channel, partial curve]

FP activity change, negative = inhibition, inactive:
Cc1ccc(-n2c(Cl)c(Cl)nc(Cl)c2=O)cc1 -2.54%
CCN(CC)C(=O)Cn1cc(C(=O)C(=O)NCc2cccs2)c2ccccc21 -2.04%
CN(C)CCN(Cc1cc2cc3c(cc2[nH]c1=O)OCO3)C(=S)NCC1CCCO1 (centres undefined) -6.32%
